# According to PubChem BioAssay AID1768 (National Center for Advancing Translational Sciences (NCATS), 2009):
# Hit rate of the full screen: of about 270,000 compounds, about 620 (0.23%) were called active. This list was built around the results that the source calls inconclusive (neither active nor inactive); the mix of calls is not that of the screen. Calls come from the whole dose curve; as a rule, active = well fitted inhibition curve with a large enough effect in the polarisation, with a control signal flat (not every such curve was filed as active); inconclusive = small, poorly fitted or top-dose-only effect, or effect the other way, or a change in a side signal; inactive = no such curve, though single readings can be large or run the other way; the % refers to the polarisation. Where the call is inconclusive, the potency comes from a doubtful curve fit. A note “side channel” means that the fit belongs to a control or component signal, not to the main read-out.
# Target: Menin (Homo sapiens) (UniProt O00255)
# Test: qHTS Assay for Inhibitors Targeting the Menin-MLL Interaction in MLL Related Leukemias: Competition With Texas Red Labeled MLL-derived Mutant Peptide; for FP activity change, negative = inhibition: % of control where 0% means no effect
# Details: fluorescence polarization; FP activity change, negative = inhibition: at 61.6 µM (top of the series)
# Potency is the fitted concentration of half-maximal effect; tags give direction and shape of the fitted curve or compound fluorescence and quenching.
# UniProt O00255, sequence (O00255 whole entry, looked up): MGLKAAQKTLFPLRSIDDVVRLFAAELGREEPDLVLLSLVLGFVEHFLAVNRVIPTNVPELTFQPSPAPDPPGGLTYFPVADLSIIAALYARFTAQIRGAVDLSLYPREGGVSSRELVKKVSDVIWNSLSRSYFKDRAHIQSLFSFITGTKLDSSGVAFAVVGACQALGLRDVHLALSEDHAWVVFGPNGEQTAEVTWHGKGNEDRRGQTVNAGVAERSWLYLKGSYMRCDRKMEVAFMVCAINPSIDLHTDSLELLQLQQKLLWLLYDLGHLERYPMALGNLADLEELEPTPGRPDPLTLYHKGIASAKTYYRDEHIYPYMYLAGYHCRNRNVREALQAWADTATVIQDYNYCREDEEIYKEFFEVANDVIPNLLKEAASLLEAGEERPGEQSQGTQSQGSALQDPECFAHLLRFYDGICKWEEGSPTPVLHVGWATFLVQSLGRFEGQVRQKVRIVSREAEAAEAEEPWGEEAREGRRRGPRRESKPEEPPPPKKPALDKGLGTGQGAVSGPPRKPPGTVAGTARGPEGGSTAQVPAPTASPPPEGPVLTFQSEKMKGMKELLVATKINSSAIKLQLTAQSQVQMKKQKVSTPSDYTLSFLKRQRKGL
Structure (SMILES),Potency,"FP activity change, negative = inhibition"
C/C(=N\Nc1ccc(C)c(Cl)c1)c1cccnc1,"inconclusive: 25.1 µM [quencher, side channel, single point]",
CCCc1nnc(NC(=O)CCC(=O)N2CCN(C3CCCC3)CC2)s1,"inconclusive: 28.2 µM [inhibitor, partial curve]",
CCOc1ccc(C(=O)CN2CCN(S(=O)(=O)c3ccc(OC)cc3)CC2)cc1,"inconclusive: 4.47 µM [inhibitor, full curve, poor fit]",
C/C(=N\NC(=O)CSCc1ccc(Cl)cc1)c1ccc(NC(=O)c2ccccc2)cc1,"inconclusive: 3.98 µM [fluorescent, full curve]",
Cc1nnc(SCCC(=O)Nc2nc(-c3ccccc3)ns2)s1,"inconclusive: 22.4 µM [quencher, side channel, partial curve]",
C/C(=N\Nc1cccc(C(=O)O)c1)c1cc2ccccc2o1,"inconclusive: 12.6 µM [quencher, side channel, partial curve]",
CCC1Oc2ccc(C)cc2N(CC(=O)NCC2CCCO2)C1=O (configuration not stated),"inconclusive: 39.8 µM [inhibitor, single point]",
COC(=O)c1ccccc1NC(=O)COc1ccccc1[N+](=O)[O-],,inactive: 11.6%
O=c1c2cc(Br)ccc2nc(-c2cccc(C(F)(F)F)c2)n1O,"inconclusive: 31.6 µM [quencher, side channel, single point]",
CSc1nc(O)c(C(c2ccc(C)cc2)c2c(O)nc(SC)[nH]c2=O)c(=O)[nH]1,"inconclusive: 10 µM [inhibitor, partial curve]",
c1ccc(-c2nn[nH]n2)c(Nc2cccc3c2CCCC3)c1,"inconclusive: 17.8 µM [quencher, side channel, partial curve]",
CCC(C)Oc1ccccc1C1CC(=O)NC2=C1C(=O)CCC2 (configuration not stated),"inconclusive: 7.08 µM [inhibitor, full curve]",
CCC(C(=O)O)C1OC(C(C)C(O)C(C)C(=O)C(CC)C2OC3(C=CC(O)C4(CCC(C)(C5CCC(O)(CC)C(C)O5)O4)O3)C(C)CC2C)C(C)CC1C (configuration not stated),,inactive: -13.7%
Cc1ccc(COC(=O)c2nn(C)c(=O)c3ccccc23)cc1,"inconclusive: 15.8 µM [fluorescent, side channel, partial curve]",
O=C(NCc1ccccn1)Nc1cc(Cl)cc(Cl)c1,"inconclusive: 20 µM [quencher, side channel, partial curve]",
O=C1C(Cc2ccccc2)S/C(=N/N=C/c2ccco2)N1c1ccccc1 (configuration not stated),"inconclusive: 39.8 µM [inhibitor, single point]",
NC(=S)N/N=C/c1ccccc1[N+](=O)[O-],"inconclusive: 14.1 µM [quencher, side channel, partial curve]",
Cc1cc(NS(=O)(=O)c2ccc(Nc3nc(-c4sc(NC(=O)c5ccccc5)nc4C)cs3)cc2)no1,"inconclusive: 35.5 µM [quencher, side channel, single point]",
O=C(Nc1cccc(-c2nc3ccccc3s2)c1)c1cccs1,"inconclusive: 28.2 µM [quencher, side channel, single point]",

Structure (SMILES),Potency,"FP activity change, negative = inhibition"
Cc1ccc(S(=O)(=O)Nc2cc3c(C(=O)O)c(C)oc3c3ccccc23)c(C)c1,"inconclusive: 28.2 µM [quencher, side channel, single point]",
Cc1c(C=O)c2ccccc2n1CCOc1ccccc1,"inconclusive: 35.5 µM [quencher, side channel, single point]",
C/C(=N/NC(=O)CN(c1ccccc1)S(=O)(=O)c1ccccc1)c1ccccc1O,"inconclusive: 7.08 µM [quencher, side channel, partial curve]",
CCOc1ccc(-n2c(=O)c3sccc3n(CC(=O)NCc3ccco3)c2=O)cc1,"inconclusive: 39.8 µM [fluorescent, side channel, single point]",
O=C(O)C1CC[C@@](C(=O)O)(c2ccccc2)c2ccccc21 (some centres not stated),,inactive: -9.9%
CCOc1cc(CNc2ccc3c(c2)OCCO3)cc(Br)c1OCC(N)=O,"inconclusive: 39.8 µM [inhibitor, single point]",
CC/C(=N\n1nnnc1Nc1ccccc1)c1ccccc1,,inactive: -10.3%
Cc1cc(NC(=O)CCC(=O)N(C2CC2)C(C(=O)NC(C)(C)C)c2ccccc2Cl)no1 (configuration not stated),"inconclusive: 8.91 µM [fluorescent, side channel, partial curve]",
Cn1cccc1C(=O)OCc1cc(Cl)cc2c1OCOC2,"inconclusive: 14.1 µM [quencher, side channel, partial curve]",
Cc1cccc(N/C=C/C(=O)c2ccc(Cl)cc2)c1,"inconclusive: 39.8 µM [fluorescent, single point]",
COC(=O)c1ccccc1NC(=O)NCc1ccc2c(c1)OCO2,"inconclusive: 31.6 µM [fluorescent, side channel, single point]",
O=C1C2C3C=CC(C4CC34)C2C(=O)N1/N=C/c1ccc(-c2ccc([N+](=O)[O-])cc2)o1 (configuration not stated),"inconclusive: 20 µM [quencher, side channel, partial curve]",
CC1CCCCC1NC(=O)c1cccc(N2C(=O)C3C4C=CC(C4)C3C2=O)c1 (configuration not stated),"inconclusive: 12.6 µM [inhibitor, partial curve]",
O=C1C(Cl)=C(N2CCOCC2)C(=O)N1c1ccc(Br)cc1,"inconclusive: 22.4 µM [quencher, side channel, partial curve]",
O=C(O)c1ccccc1NS(=O)(=O)c1ccccc1C(F)(F)F,"inconclusive: 28.2 µM [quencher, side channel, single point]",
Cc1ccc(Cl)cc1NC(=O)CSc1sc2c(O)cc(=O)[nH]c2c1C#N,"inconclusive: 25.1 µM [quencher, side channel, partial curve]",
COc1ccc(CNC(=O)Cn2nc([N+](=O)[O-])c(Br)c2C)cc1OC,"inconclusive: 7.94 µM [inhibitor, full curve]",
CCOC(=O)N1CCN(C(=O)Nc2sc3nc4n(c(=O)c3c2C)CCC(C)CC4)CC1 (configuration not stated),"inconclusive: 3.16 µM [fluorescent, side channel, single point]",
Cc1occc1-c1nc(-c2ccncc2)no1,"inconclusive: 39.8 µM [inhibitor, single point]",

Structure (SMILES),Potency,"FP activity change, negative = inhibition"
COc1cc(OC)c2c(-c3ccccc3)cc(=O)oc2c1C(CCN1CCN(c2ccccc2)CC1)c1ccc(N(C)C)cc1 (configuration not stated),,inactive: -12.3%
C/C(=N/NS(=O)(=O)c1ccc(C)cc1C)c1c[nH]c2ccccc12,"inconclusive: 22.4 µM [quencher, side channel, single point]",
CCOC(=O)c1c(-c2ccc(OC)cc2)csc1NC(=O)CNCc1ccco1,"inconclusive: 3.55 µM [inhibitor, partial curve]",
Cc1cc(C)cc(NC(=O)Cn2nnc(C(=O)NCc3ccccc3Cl)c2N)c1,"inconclusive: 39.8 µM [fluorescent, side channel, single point]",
CCOc1ccc(-c2cc(CCCC(=O)NCc3ccc(C)cc3)no2)cc1,"inconclusive: 31.6 µM [fluorescent, side channel, single point]",
CCOc1ccccc1-c1nnc2n1N=C(c1cccc(OC)c1)CS2,"inconclusive: 15.8 µM [inhibitor, partial curve]",
O=Cc1ccc(-c2ccc([N+](=O)[O-])cc2Cl)o1,"inconclusive: 25.1 µM [quencher, side channel, partial curve]",
CCn1cc(C(=O)N[C@H](C)c2ccccc2)c(=O)c2cc(F)c(N3CCN(C)CC3)cc21,"inconclusive: 28.2 µM [fluorescent, side channel, single point]",
Cc1ccc(-c2nc(CN(C)Cc3cccc4cnccc34)c(C)o2)s1,"inconclusive: 3.98 µM [fluorescent, side channel, full curve]",
Nc1ccc(S(=O)(=O)N2CCC(Cc3ccccc3)CC2)cc1,"inconclusive: 39.8 µM [quencher, side channel, single point]",
CCOc1ccccc1C(=O)Nc1cc(Cl)ccc1O,"inconclusive: 25.1 µM [quencher, side channel, partial curve]",
CCN(CC)S(=O)(=O)c1ccc(Nc2nc3ccccc3n3nnnc23)cc1,"inconclusive: 14.1 µM [quencher, side channel, partial curve]",
COc1ccc(NC(=O)c2oc3ccccc3c2NC(=O)C(C)(C)C)cc1,"inconclusive: 25.1 µM [quencher, side channel, partial curve]",
CCOc1ccc(NC(C)=O)cc1,"inconclusive: 10 µM [inhibitor, partial curve]",
COc1ccc(-c2cn3cccnc3n2)cc1NC(=O)CC(C)C,"inconclusive: 39.8 µM [inhibitor, single point]",
COC(=O)c1ccccc1OCCCCN1CC(C)OC(C)C1 (configuration not stated),,inactive: -26.8%
CC/C(=N\Nc1ccnc2cc(Cl)ccc12)c1ccc(O)cc1,"inconclusive: 22.4 µM [quencher, side channel, single point]",
Cc1onc(-c2c(F)cccc2Cl)c1C(=O)NC(C)c1ccccc1 (configuration not stated),"inconclusive: 39.8 µM [inhibitor, single point]",
O=C1ON=C(c2ccccc2)/C1=C/c1ccc(OS(=O)(=O)c2ccccc2)cc1,"inconclusive: 39.8 µM [quencher, side channel, single point]",
